Measurements reported in the RNAGym collection of RNA variant scans (doi:10.7554/elife.90254).
Read counts are not given, so values of variants with three or more changes are uncertain.

B1: LINE1-full (parent)
chain: UACGUAGGUGGUUUUCCCCUGAUAGUGCUAAGGGGGCCUGGAAGUUUGGACUGGGCAGAGCUCAACACAGCGUGGCAAAGUGGCUGUGGCUAGACUGCCUCUCUGGAUUCCUCGUCACUCAGCAGGGCAUCUCUGAGAGAAAUGCC

Variants of: B1
Experiment: self-cleavage, relative activity (ratio to wild type); higher = more cleavage; in vitro, sequencing; the parent is a self-cleaving ribozyme

Row | Variant | self-cleavage
1 | UACGUAGGUGGUUUUCCCCUGAUAGUGCUAAGGGGGCCUGGAGGAUUGGACUGGGCAGAGCUCAACACAGCGUGGCAGAGUGGCUGUGGCUAGACUGCCUCUCUGGAUUCCUCGUCACUCAGCAGGGCAUCUCUGAGGGAAAUGCC [A43G U45A A78G A138G] | 1.2
2 | UACGUAGGUGGUUUUCCCCUGAUAGUGCUAAGGGGGCCUGGAGGAUUGGACUGGGCAGAGCUCAACACAGCGUGGCAAAGUGGCUGUGGCUAGACUGCCUCUCUGGAUUCCUCGUCACUCAGCAGGGCGUCUCCGAGAGAAAUGCC [A43G U45A A129G U134C] | 1.48
3 | UACGUAGGUGGUUUUCCCCUGAUAGUGCUAAGGGGGCCUGGAGGUUUGGACUGGGCAGAGCUCAACACAGCGUGGCAAAGUGCCUGUGGCUAGACUGCCUCUCUGGAUUCCUCGUCACUCAGCAGGGCAUCUCUGGGAGAAAUGCC [A43G G83C A136G] | 1.65
4 | UACGUAGGUGGUUUUCCCCUGAUAGUGCUAAGGGGGCCUGGAGGCUUGGACUGGGCAGAGCUCAACACAGCGUGGCAAAGUGGCUGUGGCUAGACUGCCUCUCUGGAUUCCUCGUCACUCAGCAGGGCAUCUCUGAGAGGAAUGCC [A43G U45C A140G] | 2.04
5 | UACGUAGGUGGUUUUCCCCUGAUAGUGCUAAGGGGGCCUGGAGGCUUGGACUGGGCAGAGCCCAACACAGCGUGGCAAAGUGGCUGUGGCUAGACUGCCUCUCUGGAUUCCUCGUCACUCAGCAGGGCAUCUCUGAGAGAAAUGCC [A43G U45C U62C] | 0.4
6 | UACGUAGGUGGUUUUCCCCUGAUAGUGCUAAGGGGGCCUGGAGGCUUGGACUGGGCAGAGCUCAACACAGCGUGGCAAAGUGGCUGUGGCUAGACCGCCUCUCUGGAUUCCUCGUCACUCUGCAGGGCAUCUCUGAGAGAAAUGCC [A43G U45C U96C A121U] | 0
7 | UACGUAGGUGGUUUUCCCCUGAUAGUGCUAAGGGGGCCUGGAGGUUUGGACUGGGCAGAGCUCAACACAGCGUGGCAAAGUAGCAGUGGCUAGACUGCCUCUCUGGAUUCCUCGUCGCUCAGCAGGGCAUCUCUGAGAGAAGUGCC [A43G G82A U85A A117G A142G] | 0.03
8 | UACGUAGGUGGUUUUCCCCUGAUAGUGCUAAGGGGGCCUGGAGGUUUGGACUGGGCAGAGCUCAACACAGCGUGACGAAGUGGCUGUGGCUAGGCUGCCUCUCUGGAUUCCUCGUCACUCAGCAGGGCAUCUCUGAGAGAAAUGCC [A43G G75A A77G A94G] | 0.31
9 | UACGUAGGUGGUUUUCCCCUGAUAGUGCUAAGGGGGCCUGGAGGCUUGGACUGGGCAGAGCUCAGCACAGCGUGGCAAAGUGGCUGUGGCUAGACUGCCUCUCUGGAUUCCUCGUCACUCAGCAGGGCAUCUCUGAGGGAAACGCC [A43G U45C A65G A138G U143C] | 0
10 | UACGUAGGUGGUUUUCCCCUGAUAGUGCUAAGGGGGCCUGGAGGGUUGGACUGGGCAGAGCUCAACACAGAGUGGCAAAGUGGCUGUGGCUAGACUGCCUCUCUGGAUUCCUCGUCACUCAGCAGGGCAUCUCUGAGAGAAAUGCC [A43G U45G C71A] | 0.19
11 | UACGUAGGUGGUUUUCCCCUGAUAGUGCUAAGGGGGCCUGGAGGUUUGGACUGGGCAGAGCUCAACACAGCGUGACAAAGUGGCUGUGGCUAGACUGCCCCUCUGGAUUCCUCGACACUCAGCAGGGCACCUCUGAGAGAAAUACC [A43G G75A U100C U115A U130C G144A] | 1.69
12 | UACGUAGGUGGUUUUCCCCUGAUAGUGCUAAGGGGGCCUGGAGGAUUGGACUGGGCAGAGCUCAACACAGCGUGGCAAAGUGGCUGUGGCUAGACCGCCUCUUUGGAUUCCUCGUCACUCAGCAGGGCAUCUCUGAGAGAGAUGCC [A43G U45A U96C C103U A141G] | 0.12
13 | UACGUAGGUGGUUUUCCCCUGAUAGUGCUAAGGGGGCCUGGAGGCUUGGACUGGGCAGAGCUCAGCACAGCGUGGCAAAGUGGCUGUGGCUAGACUGCCUUUCUGGAUUCCUCGUCACUCAGCAGGGCAUCUCUGAGAGAAAUGCC [A43G U45C A65G C101U] | 0.17
14 | UACGUAGGUGGUUUUCCCCUGAUAGUGCUAAGGGGGCCUGGAGGUUUGGACUGGGCAGAGCUCAACACAGCGUGGCAAAGUGGCUGUGGCUAAACUGCCUCUCUGGAUUCCUCGUCACUCGGCAGGGCACCUCUGAGAGAAAUGCC [A43G G93A A121G U130C] | 0
15 | UACGUAGGUGGUUUUCCCCUGAUAGUGCUAAGGGGGCCUGGAGGCUUGGACUGGGCAGAGCUCAACACAGCGUGGCAAAGUGGCUGUGGCUAGACUGCCUCUCUGGAUUCCACGUCACUCAGCAGGGCAUCUCUGAGAGAAAUGCC [A43G U45C U112A] | 1.91
16 | UACGUAGGUGGUUUUCCCCUGAUAGUGCUAAGGGGGCCUGGAGGGUUGGACUGGGCAGAGCUCAACACAGCGUGGCAAAGUGGCUGUGGCUAGGCUGCCUCUCUGGAUUCCUCGUCACUCAGCAGGGCAUCUCCGAGAGAAAUGCC [A43G U45G A94G U134C] | 2.45
17 | UACGUAGGUGGUUUUCCCCUGAUAGUGCUAAGGGGGCCUGGAGGUUUGGACUGGGCAGAGCUCAACACAGCGUGGCAAAGUGGCUGUGGCUAGACUGCCUCUCUGGAUUCCUCGUCACUCAGCAGGGCAUCUCUGAAAGAGAUGCC [A43G G137A A141G] | 1.01
18 | UACGUAGGUGGUUUUCCCCUGAUAGUGCUAAGGGGGCCUGGAGGGUUGGACUGGGCAGAGCUCAACACAGCGAGGCAAAGUGGCUGUGGCUAGACUGCCUCUCUGGAUUCCUCGUCACUCAGCAGGGCAUCUCUGAGAGAAAUGCC [A43G U45G U73A] | 1.25
19 | UACGUAGGUGGUUUUCCCCUGAUAGUGCUAAGGGGGCCUGGAGGUUUGGACUGGGCAGAGCUCAACACAGCGUAGCAAAGUGGCUGUGGCUAGACUGCCUCUCUGGAUUCCUCGUCUCUCAGCAGGGCAUCUCUGAGAGAAAUGCC [A43G G74A A117U] | 0.41
20 | UACGUAGGUGGUUUUCCCCUGAUAGUGCUAAGGGGGCCUGGAGGUUUGGACUGGGCAGAGCUCAACACAGCGUGACAAAGUGGCUGUGGCUAGGCUGCCUCUCUGGAUUCCUCGUCACUCAGCUGGGCAUCUCUGAGAGAAAUGCC [A43G G75A A94G A124U] | 0.12
